The campaign covered roughly 120,000 compounds. About 5,300 (4.4%) were called active. The shares of active, inactive and inconclusive entries below differ from those in the screen. Calls come from the whole dose curve; as a rule, active = well fitted inhibition curve with a large enough effect; inconclusive = small, poorly fitted or top-dose-only effect; inactive = no such curve, though single readings can be large or run the other way. Where the call is inconclusive, the potency comes from a doubtful curve fit.
Assay: qHTS Primary assay for Inhibitors of Plasmodium falciparum Dd2 growth in vitro; note: nearly all actives have a fitted effect of over 65% in size;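 for activity, negative = inhibition: plate controls were DMSO vehicle for no effect and reference drug for full effect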
Conditions: P. falciparum Dd2 growth, SYBR Green, 72 h; activity, negative = inhibition: at 28.9 µM (top of the series) unless noted; series mostly up to 28.9 µM
Procedure, shortened: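 Infected erythrocytes (Dd2, 0.3% parasitemia, 2.5% hematocrit final) are added to compound in RPMI-1640/Albumax II medium, grown 72 h at 37C in low oxygen, then lysed with saponin/Triton-X containing SYBR Green and read by fluorescence.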
Potency is the fitted concentration of half-maximal effect; tags give direction and shape of the fitted curve.

Row | Compound | Potency | outcome | activity, negative = inhibition
1 | CCOc1ccc(C(=O)c2cn(CC(=O)Nc3ccc(Cl)cc3)c3cc4c(cc3c2=O)OCCO4)cc1 | inconclusive: 11.2 µM [inhibitor, single point] | – | –
2 | CCOc1cccc(-c2noc(-c3ncn4c3COC(c3ccc(OC)cc3)C4)n2)c1 (stereo unspecified) | inconclusive: 10 µM [inhibitor, single point] | – | –
3 | Cc1ccc(C)c(N2CCN(C(=O)c3noc4c3CCCCC4)CC2)c1 | – | inactive | –
4 | O=C(Nc1ccc2c(N3CCCCC3)ncnc2c1)c1ccc(F)cc1 | active: 3.16 µM | – | –
5 | Cc1ccsc1C(=O)N1[C@H]2CC[C@@H]1c1cnc(-c3ccc(F)cc3)nc1C2 | inconclusive: 8.91 µM [inhibitor, partial curve] | – | –
6 | O=C(COc1ccccc1)NC1CC(=O)N(c2ccc3c(c2)OCCO3)C1 (stereo unspecified) | inconclusive: 0.398 µM [inhibitor, full curve, poor fit] | – | –
7 | O=C(C[C@@H]1CCNC[C@@H]1Cc1cc(-c2ccc(F)cc2)on1)NCc1ccccc1 | inconclusive: 10 µM [inhibitor, partial curve, poor fit] | – | –
8 | O=C(c1ccccc1)N1Cc2[nH]cnc2C[C@H]1c1nc(-c2ccc(Cl)cc2)no1 | – | inactive [at 44.1 µM] | –
9 | CN1C[C@@H](NC(=O)c2cnccn2)C[C@H]1c1nc(-c2ccc3c(c2)OCO3)no1 | inconclusive: 31.6 µM [inhibitor, single point] | – | –
10 | Cc1cccc(-c2nc3cc4c(cc3cc2CN2CCC[C@H]2C(N)=O)OCO4)c1 | inconclusive: 10 µM [inhibitor, single point] | – | –
11 | O=C(CSCc1cc(=O)c2cc(F)ccc2[nH]1)Nc1ccccc1Cl | inconclusive: 11.2 µM [inhibitor, single point] | – | –
12 | CCC(C)NC(=O)CCc1c(C)nc2nc(-c3cc(OC)cc(OC)c3)nn2c1C (stereo unspecified) | inconclusive: 11.2 µM [inhibitor, single point] | – | –
13 | CC(C)(C)OC(=O)N1CCC(c2c(C(=O)NCCN3CCC(Cc4ccccc4)CC3)cnn2-c2ccc(F)cc2)CC1 | active: 1.58 µM | – | –
14 | Cc1noc(C)c1C(=O)NCC(=O)N1CCCCCCNC(=O)CC1c1ccccc1 (stereo unspecified) | inconclusive: 3.16 µM [inhibitor, single point] | – | –
15 | CCOc1ccc(CCNC(=O)CCc2cn(Cc3ccc(F)cc3)c3ccccc23)cc1 | inconclusive: 17.8 µM [inhibitor, single point] | – | –
16 | COc1cccc(NC(=O)C(Cc2ccccc2)NS(=O)(=O)c2ccc3c(c2)oc(=O)n3C)c1 (stereo unspecified) | inconclusive: 17.8 µM [inhibitor, single point] | – | –
17 | CCOc1ccc(CCNC(=O)c2cc3c(-c4ccc(OC)c(OC)c4)nn(C)c3s2)cc1OCC | inconclusive: 12.6 µM [inhibitor, single point] | – | –
18 | C=C[C@H]1CN2CC[C@H]1C[C@@H]2CNC(=O)c1ccc(F)c(Cl)c1 | inconclusive: 5.62 µM [inhibitor, single point] | – | –
19 | Cn1cccc1C(=O)N1[C@@H]2CC[C@H]1CC(NC(=O)c1ccc(F)cc1)C2 (stereo partly specified) | inconclusive: 20 µM [inhibitor, single point] | – | –
20 | CCc1ccc(OCC2c3cc(OC)c(OC)cc3CCN2C(=O)COc2ccccc2)cc1 (stereo unspecified) | inconclusive: 10 µM [inhibitor, single point] | – | –
21 | CCOc1ccc2c(n1)CCN(C(=O)C1CCCC1)C2 | inconclusive: 6.31 µM [inhibitor, single point] | – | –

Row | Compound | Potency | outcome | activity, negative = inhibition
22 | Cc1cc(C(=O)N2CC(F)(F)C[C@H]2c2nnc(C)o2)no1 | – | – | inactive: -13.9%
23 | COc1ccc(-c2cc(N3CCCC(NC(=O)Cc4ccc(F)cc4)C3)n[nH]2)cc1 (stereo unspecified) | – | – | inactive: -23.7%
24 | COc1ccc(-c2ccc3ncn(Cc4ccccc4)c(=O)c3n2)cc1OC | – | inactive [at 44.1 µM] | –
25 | Cc1cccc(CNC[C@H]2Cn3c(-c4ccc(Cl)cc4)cnc3CO2)n1 | inconclusive: 11.2 µM [inhibitor, partial curve, poor fit] | – | –
26 | Cc1cccc(CC(=O)N2CCC[C@H]2c2nc(-c3ccccc3)no2)c1 | – | – | inactive: -21.8%
27 | Cn1cnc(S(=O)(=O)N2CCOc3ccc(CN4CCc5ccccc5C4)cc3C2)c1 | inconclusive: 10 µM [inhibitor, single point] | – | –
28 | CC(=O)N1CCC(N2C[C@@H]3C[C@H]2C(=O)N(Cc2cccnc2)c2ccccc2O3)CC1 | – | – | inactive: -13% [at 44.1 µM]
29 | CN1CC(=O)N(c2cccnc2)Cc2c1ncnc2N1CCC(O)CC1 | inconclusive: 2.82 µM [inhibitor, partial curve] | – | –
30 | COc1ccccc1OCC(=O)c1ccc2c(c1)N(CCCC(=O)NCC1CC1)C(=O)CO2 | – | inactive | –
31 | O=C(Cc1c[nH]c2ccccc12)NCC12CCC=C1N(CC1CC1)C(=O)CC2 (stereo unspecified) | inconclusive: 5.62 µM [inhibitor, partial curve] | – | –
32 | COc1ccc(C2C=C(c3ccccc3)Nc3nc(NC(=O)/C=C/c4ccccc4)nn32)cc1 (stereo unspecified) | inconclusive: 11.2 µM [inhibitor, single point] | – | –
33 | CCCN(CC1CC1)C(=O)CCC[C@H]1NC[C@@H]2C[C@H]1CN(Cc1ccccc1)C2 | inconclusive: 12.6 µM [inhibitor, single point] | – | –
34 | COc1ccc(CN2C[C@@H](CO)[C@H](c3nc(C)no3)C2)c(OC)c1 | – | – | inactive: 5.76%
35 | CCC(C)NC(=O)Cn1ccn2nc3c(c2c1=O)CCCC3 (stereo unspecified) | inconclusive: 3.98 µM [inhibitor, single point] | – | –
36 | Cn1cnc(S(=O)(=O)N2CCOc3ccc(CCC(=O)NCC4CC4)cc3C2)c1 | – | – | inactive: -13.3%
37 | O=C(NCCCc1ccccc1)C1CCN(C(=O)N2CCOc3ccc(Cl)cc32)CC1 | inconclusive: 10 µM [inhibitor, single point] | – | –
38 | NC1CCCN(Cc2cc(F)ccc2-n2cccn2)CC1 (stereo unspecified) | inconclusive: 8.91 µM [inhibitor, partial curve, poor fit] | – | –
39 | COc1cccc(CNC(=O)c2c(OC)cc(=O)n3c2CCCC3)c1OC | – | inactive | –
40 | CN(C)CC1(O)CCC2(CCN(C(=O)c3[nH]nc4c3CCc3ccccc3-4)CC2)CC1 | inconclusive: 2.82 µM [inhibitor, full curve, poor fit] | – | –
41 | CCC(Sc1nncn2c1cc1oc(C)cc12)C(=O)Nc1ccc(F)cc1 (stereo unspecified) | inconclusive: 10 µM [inhibitor, single point] | – | –

From PubChem BioAssay AID1347417 (National Center for Advancing Translational Sciences (NCATS), 2020)
